# Data reported in paper PMC4336329 (PLoS ONE, 2015).
# Screen size: about 310,000 compounds; about 2,200 (0.71%) showed an effect of 50% or more. Effects have a minus sign here. The list shows a part of the results.
# Target: human ether-à-go-go-related gene (hERG) potassium channel (human, UniProt Q12809)
# Experiment: primary screen, population patch clamp on CHO cells stably expressing hERG
# Chain of human ether-à-go-go-related gene (hERG) potassium channel (Q12809 whole entry, looked up): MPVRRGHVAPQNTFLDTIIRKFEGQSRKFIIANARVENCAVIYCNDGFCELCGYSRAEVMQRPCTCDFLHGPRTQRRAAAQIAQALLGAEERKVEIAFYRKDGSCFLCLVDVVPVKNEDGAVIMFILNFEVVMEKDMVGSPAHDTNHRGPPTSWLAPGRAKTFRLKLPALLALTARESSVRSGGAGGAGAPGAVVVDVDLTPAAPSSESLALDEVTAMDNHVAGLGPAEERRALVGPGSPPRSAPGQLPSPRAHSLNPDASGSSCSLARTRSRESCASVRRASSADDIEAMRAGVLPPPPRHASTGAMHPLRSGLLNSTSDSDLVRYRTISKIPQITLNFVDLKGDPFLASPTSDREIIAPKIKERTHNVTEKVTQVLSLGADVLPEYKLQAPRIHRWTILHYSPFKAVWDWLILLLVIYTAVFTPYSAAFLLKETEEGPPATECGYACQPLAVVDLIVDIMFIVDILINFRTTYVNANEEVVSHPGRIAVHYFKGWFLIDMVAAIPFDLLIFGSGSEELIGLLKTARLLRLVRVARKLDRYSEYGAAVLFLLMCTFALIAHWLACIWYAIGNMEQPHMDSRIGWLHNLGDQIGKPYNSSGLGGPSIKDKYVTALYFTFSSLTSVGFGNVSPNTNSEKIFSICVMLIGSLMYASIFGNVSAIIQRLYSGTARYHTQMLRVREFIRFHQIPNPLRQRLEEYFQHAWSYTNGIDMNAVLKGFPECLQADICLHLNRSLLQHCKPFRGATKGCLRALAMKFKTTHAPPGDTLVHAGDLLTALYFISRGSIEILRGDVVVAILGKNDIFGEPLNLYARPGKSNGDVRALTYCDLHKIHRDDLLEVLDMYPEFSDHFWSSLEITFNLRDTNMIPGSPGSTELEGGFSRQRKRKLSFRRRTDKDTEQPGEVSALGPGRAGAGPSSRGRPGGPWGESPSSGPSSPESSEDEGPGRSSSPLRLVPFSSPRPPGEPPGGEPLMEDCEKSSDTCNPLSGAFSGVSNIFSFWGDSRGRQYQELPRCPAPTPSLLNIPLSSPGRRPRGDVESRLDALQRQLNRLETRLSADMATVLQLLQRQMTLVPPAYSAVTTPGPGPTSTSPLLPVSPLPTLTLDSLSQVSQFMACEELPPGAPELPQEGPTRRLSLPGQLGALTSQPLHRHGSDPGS
row,Compound,"hERG current change (%, negative = inhibition) at 1uM [%]"
1,O=C(O)c1ccc2ccccc2c1O.OCc1cc(C(O)CNCCCCCCOCCCCc2ccccc2)ccc1O (stereo not drawn),-8.45
2,COC(=O)Nc1ccccc1C(=O)N1CCC(O)(c2ccc(Cl)cc2)CC1,1.26
3,Cc1nn(Cc2ccccc2)c(C)c1/C=N/NC(=O)CNc1cccc(C(F)(F)F)c1,9.48
4,COc1ccccc1C(=O)NCC(=O)N1CCN(S(=O)(=O)c2ccccc2C(F)(F)F)CC1,0.728
5,CCOc1ccc(-n2cc(C(=O)NCc3ccco3)c3cc(OC)c(OC)cc3c2=O)cc1,14.8
6,Cc1cccc(C(=O)NNC(=O)c2csc(N3CCOCC3)n2)c1C,3.4
7,COc1cc(/C=N/NC(=O)COc2ccc(C)cc2)ccc1OC(=O)c1cccs1,18.7
8,N#Cc1c(-c2ccccc2Cl)cc(-c2ccccc2)[nH]c1=S,1.86
9,CN(Cc1c(F)cccc1Cl)C(=O)CNC(=O)c1ccc2c(c1)OCO2,13.8
10,CCOC(=O)C1SC2(C(F)(F)C(F)F)CC1(O)c1c(c(OC)c3occc3c1OC)O2 (stereo not drawn),-3.17
11,O=C(c1ccc(S(=O)(=O)N2CCCCCC2)cc1)N(c1ccccn1)C1CCCCC1,0.0925
12,CC(Oc1ccccc1Cl)C(=O)N1CCCN(C)CC1 (stereo not drawn),21.4
13,COc1ccc(-n2nc(C(=O)NCC(=O)Nc3cccc(Cl)c3)c3ccccc3c2=O)cc1,16.5
14,Cc1cccc(NC(=O)CSc2nc(C3CC3)nc3ccccc23)c1,4.82
15,CN1/C(=C\C=Nc2ccccc2)C(C)(C)c2ccccc21,-65
16,N=c1c2c(ncn1Cc1ccco1)Oc1cc(O)ccc1C2c1ccccc1 (stereo not drawn),-69.5
17,CC(C)[C@H]1C(=O)O[C@@H]2CCN3CC=C(COC(=O)[C@](C)(O)[C@]1(C)O)[C@H]23,2.55
18,CC(Oc1ccccc1)C(=O)N=C1SC2CS(=O)(=O)CC2N1c1cccc(F)c1 (stereo not drawn),11.7
19,COc1ccc(/C=C2\Sc3ccc(C(=O)N4CCN(Cc5ccccc5)CC4)cc3N(C)C2=O)cc1OC,8.54
20,O=C(O)CSc1nnc(C2COc3ccccc3O2)n1-c1ccccc1 (stereo not drawn),20.6
21,Cc1cc2oc(=O)cc(Cn3ccnc3)c2cc1O,14
22,Cc1oc(-c2ccc(Cl)cc2)nc1CS(=O)CC(=O)NCc1ccc2c(c1)OCO2 (stereo not drawn),15.3
23,Cc1ccc(C2=NN=C(NC(=O)CSc3nc(C)cc(C)n3)SC2)cc1,0.712
24,CC(=O)/C(=N\Nc1ccc(Cl)cc1)Sc1nnc(-c2ccccc2)n1-c1ccccc1,5.5
25,COCCNC(=O)/C(C#N)=C/C=C/c1ccccc1,8.34
26,O=C(Nc1ccc(Br)cc1)C1CCC(=O)N1Cc1ccccc1Cl (stereo not drawn),12.3
27,COc1c(Cl)cc(Cl)cc1/C=N/n1cnnc1,5.99

row,Compound,"hERG current change (%, negative = inhibition) at 1uM [%]"
1,CC1=C(C#N)C(Nc2cc(C)ccn2)(C(F)(F)F)C(=O)N1 (stereo not drawn),-2.79
2,N#CCN1CCN(CCC(=O)Nc2ccc(OCc3ccccc3)cc2)CC1,-1.48
3,CC(C)(C)NC(=O)Cn1c(SCC(N)=O)nc2ccccc21,17.9
4,Cc1onc(NC(=O)NC(=O)c2ccccc2F)c1Br,10.5
5,O=C(NCc1cccnc1)C1c2ccccc2C(=O)N1C1CCCCCC1 (stereo not drawn),8.67
6,COc1cc(NC(=O)Cn2nc(C(F)(F)F)c(Br)c2C)cc([N+](=O)[O-])c1,13.8
7,CC1(C)Cc2c(oc3ncn4ncnc4c23)CO1,15.5
8,CCCCN(C(=O)c1ccc(C)o1)c1c(N)n(CCCC)c(=O)[nH]c1=O,5.08
9,CCCCSc1cnn(-c2ccccc2)c(=O)c1SCCCC,-5.42
10,CSCCCN1CCC(n2nccc2NC(=O)CCCc2ccccc2)CC1,-28.5
11,COc1ccc(C)cc1N(CC(=O)N1CCCCCC1)S(=O)(=O)c1ccc(C)cc1,0.866
12,COC(=O)Cc1ccc(NC(=O)c2ccc3c(c2)C(=O)N(Cc2cccnc2)C3=O)cc1,9.99
13,COc1ccc(NS(=O)(=O)c2cc3c(cc2C)NC(=O)CO3)c(OC)c1,6.35
14,CCCCOC(=O)CCNc1n[nH]c(=O)[nH]c1=O,6.23
15,O=C(NCc1ccco1)c1cccc(S(=O)(=O)N2CCN(Cc3ccccc3)CC2)c1,-3.57
16,Cc1ccc(CNC(=O)COC(=O)c2ccc(Br)cc2)cc1,17.2
17,Cc1ccc(NC(=O)C2CCCN2c2nn3c(=O)cc(C)nc3s2)cc1 (stereo not drawn),3.7
18,N#Cc1c(NC(=O)c2ccc(Cn3cc(Br)cn3)o2)sc2c1CCCCCC2,2.08
19,COc1ccccc1-c1n[nH]c(=S)n1Cc1ccccc1,14.5
20,Cc1nc(-c2ccccn2)nc(SCC(=O)c2ccccc2)c1Cl,9.36
21,O=C1/C(=C\c2ccc(O)cc2)SC(=S)N1Cc1ccccc1,19.3
22,CSCCC(NC(=O)c1ccco1)C(=O)N(C)CC(=O)Nc1c(Cl)cccc1Cl (stereo not drawn),13
23,O=C(NCc1ccc2c(c1)OCO2)c1ccccn1,6.73
24,CCn1cc(C(=O)O)c(=O)c2cc(F)c(N3CCN(C(=S)Nc4ccc(OC)cc4)CC3)cc21,22.2
25,CCCCN(C)S(=O)(=O)c1ccc(C(=O)Nc2nnc(-c3cccs3)o2)cc1,11.3
26,COc1ccc(CN2CCN(Cc3cccn3-c3ncccn3)CC2CCO)c(C)c1C (stereo not drawn),-80.4
27,Cc1ccc(N2CC(C(=O)Nc3nnc(SCC(=O)Nc4cc(C)on4)s3)CC2=O)cc1 (stereo not drawn),25.3
